Out of some 45,000 compounds screened, about 65 (0.1%) were called active. Calls come from the whole dose curve; as a rule, active = well fitted activation curve with a large enough effect; inconclusive = small, poorly fitted or top-dose-only effect; inactive = no such curve, though single readings can be large or run the other way. The list shows a part of the results.
Target: Galactocerebrosidase (Homo sapiens) (UniProt P54803)
Assay: A Novel Cell-Based Assay to Identify Small Molecules for B -Galactocerebrosidase; note: 0% is about no effect; nearly all actives have a fitted effect of over 65% in size
Settings: 145M-Twi-hGALC-G270D cells (Twitcher mouse brain line with human GALC G270D), HMU-beta-Gal fluorescence, 48 h; series mostly up to 57.5 µM; activation: at the top concentration
Procedure, shortened: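 Live 145M-Twi cells (Twitcher mouse brain-derived, GALC-null) stably expressing human GALC-G270D, with a wild-type GALC line, were compound-treated. Residual GALC activity was then read as fluorescence from 0.1 mM final HMU-β-gal at pH 5.2; higher signal means activation.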

UniProt P54803, sequence (P54803 whole entry, looked up): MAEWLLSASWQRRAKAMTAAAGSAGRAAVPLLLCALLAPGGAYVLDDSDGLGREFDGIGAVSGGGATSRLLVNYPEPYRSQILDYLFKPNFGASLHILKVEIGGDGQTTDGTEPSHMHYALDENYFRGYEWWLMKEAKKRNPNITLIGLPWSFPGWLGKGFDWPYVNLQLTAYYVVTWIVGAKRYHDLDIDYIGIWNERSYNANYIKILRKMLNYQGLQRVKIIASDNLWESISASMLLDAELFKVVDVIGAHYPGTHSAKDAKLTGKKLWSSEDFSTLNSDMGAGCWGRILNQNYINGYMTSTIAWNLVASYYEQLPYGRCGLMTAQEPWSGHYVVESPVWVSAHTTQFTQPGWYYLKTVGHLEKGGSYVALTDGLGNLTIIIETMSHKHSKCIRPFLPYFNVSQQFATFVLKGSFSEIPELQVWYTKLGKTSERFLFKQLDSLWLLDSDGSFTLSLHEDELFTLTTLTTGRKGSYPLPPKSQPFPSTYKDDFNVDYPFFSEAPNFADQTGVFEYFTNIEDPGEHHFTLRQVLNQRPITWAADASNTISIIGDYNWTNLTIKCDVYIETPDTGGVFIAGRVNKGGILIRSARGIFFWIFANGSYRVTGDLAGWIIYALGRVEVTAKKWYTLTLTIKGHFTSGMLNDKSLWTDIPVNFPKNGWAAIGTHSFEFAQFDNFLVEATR

activation, inactive:
CCc1cccc(NC(=O)CSc2ncccc2C(=O)Oc2ccccc2Cl)c1 -25%
COc1ccc(CNC(=O)CCC(=O)N2CC3CCCN3c3ccccc32)c(OC)c1 (configuration not stated) -8.71%
Cc1cc(C)cc(OCc2ccc(C(=O)Nc3ccccc3F)o2)c1 -21.7%
CCOC(=O)c1c(NC(=O)c2cc(C)on2)sc(C)c1C -22.2%
CCOc1ccc(NC(=O)CCS(=O)(=O)c2cccc3nonc23)cc1 -21.5%
Cc1ccc(-n2ncc3c(N4CCN(C)CC4)ncnc32)cc1Cl -14.6%
Cc1cc(C)c2c(=O)cc(C(=O)Nc3sc4c(c3C(=O)NCc3cccnc3)CCCC4)oc2c1 -6.94%
CC(=O)c1cccc(NC(=O)c2ccc(-n3c(C)nnc3C)cc2)c1 -12.6%
COC(=O)c1cc(S(=O)(=O)NCC2CCN(Cc3ccc(C)cc3)CC2)c[nH]1 -3.42%
CCOc1ccc(-n2c(SCC(=O)Nc3ccc(F)cc3)nc3c([nH]c4ccccc43)c2=O)cc1 -11.3%
CCC(Sc1nc2nccnc2c(=O)n1Cc1ccc(OC)cc1)C(=O)NC1CCCCC1 (configuration not stated) -0.179%
CC(C)C12CN3CC(C(C)C)(CN(C1)C3c1ccc(OCc3ccccc3)cc1)C2=O (configuration not stated) -28.3%
CCOc1ccccc1CNC(=O)c1ccc2c(c1)sc1nc(-c3cccc(OC)c3)cn12 -35.6%
CC(C)n1c(SCC(=O)Nc2ccc(F)cc2)nc2c(oc3ccccc32)c1=O -9.08%
Cc1cc(NC(=O)COc2ccccc2)cc(-c2nc3ccccc3o2)c1O -1.67%
CC(C)(C)OC(=O)N1CCC(c2nnc(SCc3ccccc3)o2)CC1 2.47%
COc1ccc(-c2noc(-c3ccc(N4CCCCC4C)c([N+](=O)[O-])c3)n2)cc1OC (configuration not stated) -24.6%
COc1ccccc1CNC(=O)c1ccc(N2Cc3cccc(OC)c3Oc3ncccc32)s1 -19.9%
CCCn1c(-c2cccc(Br)c2)nc2ccccc21 -13.7%
CCCN1C(=O)C(Cc2nc3ccccc3c(=O)n2-c2cccc(C)c2)c2ccccc21 (configuration not stated) -4.28%
Cn1ncc(C(=O)N2CCN(c3ccc(F)cc3)CC2)c1C1CCN(C(=O)OC(C)(C)C)CC1 7.75%
CCn1c(-c2ccc(S(=O)(=O)N3CCOCC3)cc2)csc1=Nc1ccc(C)c(Cl)c1 -24%
O=C(CSc1nnc2[nH]c(=O)cc(-c3ccccc3)n12)Nc1ccc(F)cc1F -18.8%
Cc1ccc(C2=CC(c3c(F)cccc3Cl)n3ncnc3N2)cc1C (configuration not stated) -10.1%
CC(=O)Nc1cc(-c2nc3ccccc3s2)ccc1C -4.13%
Cc1cc(C)cc(NC(=O)C2CCCN2S(=O)(=O)c2cccc3nsnc23)c1 (configuration not stated) -8.39%
Cc1cccc(-c2noc(-c3ccc(N4CCN(C)CC4)c([N+](=O)[O-])c3)n2)c1 -7.3%
COc1ccc(CNc2nc3c(c(=O)n(C)c(=O)n3C)n2Cc2ccccc2Cl)cc1 -6.96%
Cc1ccc(C)c(CN2CCC(CNC(=O)c3cc4ccc5cccnc5c4[nH]3)CC2)c1 -18.6%
COc1ccc(C)cc1NC(=O)c1ccc2c(c1)CCN2S(=O)(=O)c1ccc(Cl)cc1 -10.2%
Cc1ccc(C(=O)n2nc(C)c(S(=O)(=O)N3CCCCCC3)c2C)cc1 4.19%
CCOC(=O)c1ccc(CN(Cc2ccccc2C)S(=O)(=O)c2ccc(C(C)(C)C)cc2)cc1 -18.1%
COc1cccc(C2C(C(=O)Nc3ccccc3)=C(C)Nc3nc(-c4ccccc4)nn32)c1OC (configuration not stated) -0.6%
CN(C(=O)CCS(=O)(=O)c1cc2c(cc1Cl)NC(=O)CO2)C1CCCCC1 -3.07%
COc1cc(OC)c(OC)cc1CNc1sc2c(c1C(=O)Nc1ccccc1OC)CCC2 -18.9%
O=C(Nc1ccc2nc(SCC(=O)N3CCc4ccccc43)sc2c1)c1cccc(Cl)c1 -0.318%
Cc1ccc(CCNC(=O)CCS(=O)(=O)c2cc3c(cc2C)NC(=O)CO3)cc1 -24.7%
Cc1nncn1-c1ccc(C(=O)Nc2cc(F)ccc2F)cc1 -21.4%
CCN(CC)c1ccc(NC(=O)c2sc3nc4c(cc3c2N)CN(C)CC4)cc1 -21.9%
CCn1c(C(=O)N2CCCC(C(=O)N3CCN(c4cc(C)ccc4C)CC3)C2)cc2sccc21 (configuration not stated) -42.2%
Cc1ccccc1CCNC(=O)c1cc2cc(S(=O)(=O)N3CCCCC3)ccc2n1C 4.66%
COc1ccc(-n2c(=O)c3ccccc3n(CC(=O)NCCc3ccc(OC)c(OC)c3)c2=O)cc1 -10.4%
COc1cc2c(cc1OC)C(COc1cc(C)cc(C)c1)N(C(=O)COc1ccccc1)CC2 (configuration not stated) -24.3%
COc1ccc(Cl)cc1NC(=O)CCCN1C(=O)C(c2ccccc2)Oc2cccnc21 (configuration not stated) -7.44%
COc1ccc(NC(=O)c2cc3c(=O)n(Cc4cccnc4)ccc3nc2C)cc1OC -11.8%
COc1ccc(NC(=O)CSc2nc3nc(C)c(Cc4ccccc4Cl)c(C)n3n2)cc1OC -7.02%
COc1ccc(C)cc1NS(=O)(=O)c1cc2c3c(c1)CC(=O)N3CCC2 -8.54%
CCn1c(=N)c(C(=O)NC2CCCCC2)cc2c(=O)n3cc(C)ccc3nc21 5.23%
Cc1ccc(C2=Nc3ccccc3N(CC(=O)NCc3ccccc3Cl)C(=O)C2)cc1C -11.3%
COc1ccc(N2Cc3cccc(C(=O)Nc4ccc(F)cc4)c3C2=O)cc1 -19.3%
COc1ccc(-n2ncc(C(=O)Nc3cccc(C(F)(F)F)c3)c2C2CCN(C(=O)OC(C)(C)C)CC2)cc1 -3.12%
CCOCCCN(Cc1ccco1)S(=O)(=O)c1cc2c(cc1C)NC(=O)CO2 -15.1%
Cc1c(C(=O)NCCc2ccc(Cl)cc2)sc2nc3n(c(=O)c12)CCCC3 -14.6%
CC(C)C(=O)NCC(c1ccc2c(c1)OCO2)N1CCN(c2ccccc2)CC1 (configuration not stated) -12.9%
Cc1ccccc1CN1c2ccccc2-c2nc(SCC(=O)NCc3ccccc3)ncc2S1(=O)=O -4.91%
CCN1CCCC1CN (configuration not stated) -11.5%
O=C(Nc1c(C(=O)N2CCN(c3ccccc3)CC2)oc2ccccc12)c1ccco1 -15%
Cc1cccc(-c2noc(CSc3nc(-c4ccc(F)cc4)cc(=O)[nH]3)n2)c1 -6.85%
COc1ccc(CCNC(=O)C(=O)NCC(c2ccc3c(c2)OCO3)N2CCOCC2)cc1OC (configuration not stated) -8.85%
Cc1cccn2c(=O)c(C(=O)NCCc3ccccc3)c(O)nc12 -20.6%
Cc1ccc2nc(CNC(=O)c3ccccc3)[nH]c2c1 4.45%
CCOc1ccc(NC(=O)c2oc3ccccc3c2NC(=O)c2c(F)cccc2F)cc1 -7.67%
